Molecular target: T1, FSHR (coated protein) (UniProt P23945)
T1 sequence (looked up): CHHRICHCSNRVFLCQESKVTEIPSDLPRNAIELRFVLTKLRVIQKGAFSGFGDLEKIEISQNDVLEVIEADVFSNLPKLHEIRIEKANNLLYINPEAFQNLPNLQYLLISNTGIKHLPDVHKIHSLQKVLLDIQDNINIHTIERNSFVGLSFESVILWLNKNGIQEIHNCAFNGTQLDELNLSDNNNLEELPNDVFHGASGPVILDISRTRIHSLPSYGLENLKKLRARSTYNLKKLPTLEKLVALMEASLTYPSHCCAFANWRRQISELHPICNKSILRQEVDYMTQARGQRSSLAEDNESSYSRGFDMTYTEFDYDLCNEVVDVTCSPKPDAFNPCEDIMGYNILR
Test: ELISA: FSHR coated at 10ug/mL, 目的蛋白 at 1ug/mL, detected with HRP-Streptavidin through the Strep II tag, TMB; water-coated control well 0.0524

吸光度值 (620nm) (absorbance at 620nm): 0.0564
B1: 靶向FSHR和CD3分子的双结合蛋白 (SEQ ID NO.6) (protein)
chain: WSHPQFEKQVQLQQSGAELARPGASVKMS[here about 80 residues without letters]WGQGTTLTVSSGGGGSGGGGSGGGGSQIVLTQSPAIMSASPGEKVTMTCSASSSVSYMNWYQQKSGTSPKRWIYDTSKLASGVPAHFRGSGSGTSYSLTISGMEAEDAATYYCQQWSSNPFTFGSGTKLEINRGGGGSGGGGSGGGGSYTRDLVYKDPARPKIQKTCTFHHHHHH
